PubChem BioAssay AID686979 (National Center for Advancing Translational Sciences (NCATS), 2013)
Out of some 420,000 compounds screened, about 50,000 (12%) were called active. The shares of active, inactive and inconclusive entries below differ from those in the screen. Calls come from the whole dose curve; as a rule, active = well fitted inhibition curve with a large enough effect; inconclusive = small, poorly fitted or top-dose-only effect; inactive = flat fitted curve, though single readings scatter. No potency is given beside an inconclusive call; the fits are too rough.

test: qHTS for Inhibitors of human tyrosyl-DNA phosphodiesterase 1 (TDP1): qHTS in cells in presence of CPT; conditions: chicken DT40 Tdp1-/-;hTDP1 cells + 20 nM CPT, ATP luminescence, 48 h; activity change, negative = growth inhibition: at 46.2 µM (top of the series) unless noted; note: nearly all actives have a fitted effect of over 55% in size
How it was run: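 Chicken DT40 Tdp1-/- cells stably complemented with human TDP1 were seeded at 400 cells/well in medium containing 20 nM camptothecin, exposed to pin-transferred compounds, and grown at 37 °C for at least 48 hr. Viability was read as ATP luminescence.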
% is set by controls: 0 for no effect and ±100 for the full control effect; potency is the fitted concentration of half-maximal effect; tags give direction and shape of the fitted curve.

SMILES | activity change, negative = growth inhibition | Potency
CCOC(=O)N1CCN(C(=O)CCCn2c(=S)[nH]c3ccsc3c2=O)CC1 | inactive: 2.57% | –
O=C(COC(=O)c1ccc(NS(=O)(=O)c2cccs2)cc1O)NC1CCCCC1 | – | inconclusive [inhibitor, single point]
CCCCc1ccc(NC(=S)N2CCN(C(=O)c3ccco3)CC2)cc1 | inactive: 7.56% | –
CCCCCC(=O)NNC(=S)NC(C)=O | – | inconclusive [inhibitor, single point]
COc1ccc(-c2noc(CCC(=O)N3CCN(c4ccc(Cl)cc4)CC3)n2)cc1 | inactive: -25.3% | –
CC1CCN(Cc2c(C(=O)N/N=C/c3ccccc3O)nnn2-c2nonc2N)CC1 | – | active: 8.2 µM
Cc1ccc(S(=O)(=O)/N=c2\ccc(Cl)cn2C(F)F)cc1 | inactive: 1.88% | –
OC(COCC1COc2ccccc2O1)CN1CCN(c2ccc(F)cc2)CC1 (configuration not stated) | – | active: 13 µM
Cc1nn(-c2ccccc2)c2[nH]c(=O)c(CNc3ccc(N4CCOCC4)cc3)cc12 | – | active: 18.4 µM
O=C(COC(=O)/C=C/C(=O)N1CCN(c2ccccc2)CC1)NC(c1ccccc1)c1ccccc1 | – | inconclusive [inhibitor, single point]
COc1ccc(N2C(N)=NC(N)=NC23CCCC3)cc1 | – | inconclusive [inhibitor, single point]
CC(=O)Nc1c2c(nn1-c1cccc(Cl)c1)CS(=O)C2 (configuration not stated) | inactive: 7.26% | –
CCCCOC(=O)C1=C(C)NC(=O)NC1c1ccc2c(c1)OCO2 (configuration not stated) | inconclusive: -32% [inhibitor] | –
Clc1ccc(OCCn2ccnc2)c2ccccc12 | – | inconclusive [inhibitor, single point]
Cc1ccc(OCc2nc3ccccc3n2C(C(=O)NC(C)(C)C)c2ccncc2)cc1 (configuration not stated) | inactive: -6.21% | –
COc1ccc(C2c3ccc(O)cc3Oc3ncn(Cc4ccco4)c(=N)c32)cc1 (configuration not stated) | – | active: 11.6 µM
CCOc1ccccc1CNC(=O)c1cc2c(=O)n(Cc3cccnc3)ccc2nc1C | – | inconclusive [inhibitor, single point]
Nc1nnnn1/N=C\c1ccc(Cl)c([N+](=O)[O-])c1 | – | inconclusive [inhibitor, single point]
CCc1nnc(NS(=O)(=O)c2ccc(NC(=O)C(c3ccccc3)c3ccccc3)cc2)s1 | inactive: 18.7% | –
O=C(NCc1ccccn1)c1ccc2c(=O)n(CCc3ccccc3)c(=O)[nH]c2c1 | – | active: 20.6 µM
S=C(NCc1ccco1)N1CCN(Cc2ccc(Cl)cc2Cl)CC1 | – | inconclusive [inhibitor, single point]
Cc1ccc(-n2c(Cc3ccccc3)n[nH]c2=S)cc1 | inactive: 1.45% | –
CCc1cccc(NC(=O)Cn2c(C(=O)OC)cc3sc(Cl)cc32)c1 | – | inconclusive [inhibitor, single point]
CCOC(=O)c1cn2nc(Oc3ccccc3)ccc2n1 | inconclusive: -32.5% [inhibitor] | –
O=S(=O)(c1ccccc1)N1CCC2(CCCN(Cc3ccncc3)C2)CC1 | inactive: -12.4% | –
COc1ccc(S(=O)(=O)N2CCN(c3ccccc3OC)CC2)cc1C(=O)N1CCCCC1 | inconclusive: -33.4% [inhibitor] | –

SMILES | activity change, negative = growth inhibition | Potency
Cc1ccccc1NC(=O)CCc1nnc2ccc(N3CCC4(CC3)OCCO4)nn12 | inactive: -12.2% | –
C/C(=N\NC(=O)CN1CCCCC1)c1cccc([N+](=O)[O-])c1 | inactive: 12.4% | –
COc1cc(C(=O)O)nc(OC)n1 | inactive: 0.539% | –
O=C1Nc2ccccc2Oc2cc([N+](=O)[O-])cc(Oc3ccccc3)c21 | – | inconclusive [inhibitor, single point]
CCCCCCN1CCN(C2CN(Cc3cn(CCCC(=O)OC)nn3)S(=O)(=O)C2)CC1 (configuration not stated) | inactive: -5.48% | –
O=C(CSc1ncn[nH]1)Nc1nc2c(F)c(F)c(F)cc2s1 | inactive: -10.6% | –
COc1ccc(CCn2nc(C)c([N+](=O)[O-])c2C)cc1 | inactive: -29.9% | –
Cc1cc(C(=O)N/N=C/c2ccc([N+](=O)[O-])cc2)c2ccccc2n1 | – | active: 2.91 µM
CCCn1c(N)c(C(=O)CSc2nc3ccccc3c(=O)n2Cc2ccccc2)c(=O)[nH]c1=O | inactive: 3.19% | –
COc1cccc(NC(=O)c2nc(SC)ncc2Cl)c1 | – | inconclusive [inhibitor, partial curve]
COc1ccc2cc(C(=O)C3CCCN(C(=O)c4cnccn4)C3)ccc2c1 (configuration not stated) | – | inconclusive [inhibitor, partial curve]
Cc1ccc2ccc(C(Nc3ccccc3)c3ccccc3)c(O)c2n1 (configuration not stated) | – | active: 10.3 µM
CCOc1ccc(CCNC(=O)c2ccc(S(=O)(=O)N3CCCC3)cc2)cc1OCC | – | inconclusive [inhibitor, single point]
Brc1ccc(-c2nc(-c3ccccn3)no2)o1 | – | inconclusive [inhibitor, single point]
Cc1cccc(CCNC(=O)C2CCC(=O)N(Cc3ccccc3F)C2)n1 (configuration not stated) | inactive: -0.623% | –
Cc1ccc(NC(=O)COC(=O)c2nn(-c3ccc(Cl)cc3)cc2O)cc1 | inactive: -22.3% | –
CCOC(=O)N1CCc2c(sc3c2C(=O)NC(c2ccc(N(C)C)cc2)N3)C1 (configuration not stated) | – | active: 2.31 µM
COC(=O)c1cc(-c2cc(OC)ccc2OC)nc2c1c(=O)n(C)c(=O)n2Cc1ccccc1 | – | active: 16.4 µM
CC(C)[C@H](CO)NC(=O)[C@H]1O[C@@H](n2ccc(N)nc2=O)[C@H](O)[C@@H]1O | inactive: 1.47% | –
Nc1c(N=O)c(=O)[nH]c(=O)n1-c1ccccc1 | inactive: -6.83% | –
O=C(Nc1cccc(F)c1)N1CCCCCC1 | inactive: 2.65% | –
O=c1cc(CN2CCN(c3ccccc3F)CC2)c2cc3c(cc2o1)CCCC3 | inconclusive: -31.5% [inhibitor] | –
S=c1[nH]ncn1/N=C/c1ccc(Br)cc1 | – | inconclusive [inhibitor, single point]
COCc1cccc(-c2csc(C(O)c3ccccc3)n2)c1 (configuration not stated) | – | inconclusive [inhibitor, partial curve]
CCCN(CC(=O)Nc1cccc(Br)c1)CC(=O)Nc1ccc(F)c(F)c1F | – | inconclusive [inhibitor, single point]
O=C(NNC(=O)c1cnccn1)c1ccc(Cl)c(Cl)c1 | – | active: 7.31 µM
